The record followed here is PubChem BioAssay AID488969 (Vanderbilt High Throughput Screening Facility, 2010).

In all, about 110,000 compounds were measured (“z-score”: median about -0.1, highest 2% from about 2 on). Some of the results follow. The source made the active and inactive calls.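 The calls were made as follows: active = z-score in the third read window above 3 or below -3; inactive = the rest.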

The assay concerns the target Metabotropic glutamate receptor 8 (Rattus norvegicus) (UniProt P70579). Put plainly: rat mGluR8 modulators via GIRK flux, primary screen, cell-based, thallium flux, HTS (AID 488969). To be noted: HEK293 rat mGluR8, GIRK (G protein-gated inwardly rectifying potassium channel) thallium flux, FluoZin2; at 10 µM; stronger effect = higher value; submaximal glutamate (EC20) added with thallium.
Chain of UniProt P70579 (P70579 whole entry, looked up): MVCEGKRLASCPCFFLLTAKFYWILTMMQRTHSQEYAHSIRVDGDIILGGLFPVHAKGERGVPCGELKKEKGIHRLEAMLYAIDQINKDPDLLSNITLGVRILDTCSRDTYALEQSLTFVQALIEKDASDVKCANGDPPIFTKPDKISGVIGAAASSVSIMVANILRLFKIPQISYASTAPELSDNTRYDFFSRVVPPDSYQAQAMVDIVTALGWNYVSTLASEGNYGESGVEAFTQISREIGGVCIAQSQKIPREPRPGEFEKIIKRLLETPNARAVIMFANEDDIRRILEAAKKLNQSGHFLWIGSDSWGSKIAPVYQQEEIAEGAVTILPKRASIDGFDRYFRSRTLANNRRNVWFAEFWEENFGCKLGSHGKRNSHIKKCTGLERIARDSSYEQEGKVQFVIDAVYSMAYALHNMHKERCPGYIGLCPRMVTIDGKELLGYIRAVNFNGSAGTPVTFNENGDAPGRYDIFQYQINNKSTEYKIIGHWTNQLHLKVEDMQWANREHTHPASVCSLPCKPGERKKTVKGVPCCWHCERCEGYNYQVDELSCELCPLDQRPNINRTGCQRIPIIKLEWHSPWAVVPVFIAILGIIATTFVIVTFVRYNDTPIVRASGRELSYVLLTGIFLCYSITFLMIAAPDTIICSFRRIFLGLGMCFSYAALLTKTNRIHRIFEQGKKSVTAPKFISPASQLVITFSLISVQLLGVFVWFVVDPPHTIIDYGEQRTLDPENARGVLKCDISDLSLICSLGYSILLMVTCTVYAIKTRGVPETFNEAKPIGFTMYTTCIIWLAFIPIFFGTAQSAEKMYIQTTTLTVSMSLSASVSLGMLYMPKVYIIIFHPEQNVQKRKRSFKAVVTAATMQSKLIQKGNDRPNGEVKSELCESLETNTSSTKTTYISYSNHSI
The molecule `O=C1CCCc2c1cc(-c1ccccc1)n2-c1ccc(O)cc1` showed a z-score of -0.123.
The value for `CCOC(=O)C(C)Sc1nnc(CSc2nc3nc(C)cc(C)n3n2)o1` (stereo unspecified) was -0.804.
The value for `COc1ccc(Cl)cc1S(=O)(=O)N1CCN(C)CC1` was 0.36; that for `COCCCNC(=O)CCn1c(=O)c2ccccc2n(CC(=O)Nc2ccc(C)cc2C)c1=O` was -0.836.
The value for `COc1ccc(-c2ccnc(-c3ccc(OCCCF)cc3)n2)cc1` was -0.124; that for `CCS(=O)(=O)Nc1ccc(NC(C)=O)cc1` was -0.147; that for `COc1ccc(-c2nn(CCC(=O)O)cc2/C=C2\SC(N)=NC2=O)cc1OC` was -0.128.
The molecule `Cc1sc2nc(COC(=O)c3ccc(N4CCCC4)c([N+](=O)[O-])c3)[nH]c(=O)c2c1C` registered a z-score of -0.219.
In turn, `O=C(NC1CCCC1)c1ncn[nH]1` displayed a z-score of -0.254.
Turning to `CC(C)COc1ccc(C(=O)Nc2ccc(NC(=O)c3ccco3)c(Cl)c2)cc1`, the z-score was -0.121.
In the case of `CCCCC(=O)Nc1ncc2c(n1)CC(C)(C)CC2=O`, the z-score was active: 6.64.
On to `Cc1nn(-c2ccccc2)c(N)c1Sc1cccc([N+](=O)[O-])c1`, for which the z-score is -0.774.
Under `COc1ccc(/C=C/c2nnc(NC(=O)CSc3ccc(Cl)cc3)s2)cc1` stands 0.0185; under `CN1CCN(CCCn2cnc3c(=O)oc4ccccc4c32)CC1`, 1.1; under `CCN(CC)c1nc(N(CC)CC)[nH]c(=O)n1`, 1.39.
Under `O=C1CC(Sc2nnnn2-c2ccccc2)C(=O)N1c1cccc(Cl)c1` (stereo unspecified) stands 0.0139.
As for `Cc1nnc(SCc2ccccc2)n1CC1CCCO1` (stereo unspecified), the z-score stood at 0.263.
Under `CCC(=O)Nc1ccc(C(=O)NNC(=O)COc2cccc(C)c2)cc1` stands -0.262.
Under `O=C1N=C(N2CCCCC2)SC1=C1CCCCC1` stands -0.28.
`O=C(NCCN1CCOCC1)C1CCN(c2nc3ccccc3o2)CC1` yielded a z-score of 0.015.
Under `CCOC(=O)c1sc(Nc2cccc(C)c2C)nc1C` stands -0.0747; under `Cc1ccnc(NC(=O)CS(=O)(=O)Cc2ccccc2)c1`, -0.174; under `Cc1ccc(NC(=O)c2cc(-c3ccco3)on2)cc1`, 0.297.
As to `COc1ccc(N/C(C)=C2/C(=O)C(=O)N(CCO)C2c2ccc(Br)cc2)cc1` (stereo unspecified), the z-score was active: 5.05.
The value for `Cc1ccc(C#N)c(SCc2ccccc2[N+](=O)[O-])n1` was -0.24; that for `C/C(=N/OC(=O)c1ccc(F)cc1)c1ccc(C)cc1` was -0.0721.
In the case of `O=C(Nc1cccc2ccccc12)c1ccc(Br)o1`, the z-score is 0.327.
Under `CCn1c(O)c(N=NC2=NC(=O)CS2)c2ccccc21` stands 0.217; under `CCc1nc(SCC(=O)N2c3ccccc3Sc3ccccc32)c2ccccc2n1`, -1.01.
The molecule `CCS(=O)(=O)N1Cc2ccccc2CC1C(=O)Nc1nnc(SCc2c(Cl)cccc2Cl)s1` (stereo unspecified) registered a z-score of 0.776.
Molecule `CCn1c2c(c(=N)c3c1CCC3)CCC2` gave a z-score of 0.0976.
In turn, `CC(C)C(C)NC(=O)CSc1nc2scc(-c3ccco3)c2c(=O)n1-c1ccccc1` (stereo unspecified) had a z-score of -0.536.
In turn, `CC(=O)Nc1ccc(NC(=S)Nc2ccccc2)cc1` returned a z-score of -0.0688.
Under `O=C(C1CCCO1)N1CCN(c2ccc(F)cc2)CC1` (stereo unspecified) stands 0.282; under `CC(=O)OC1c2ccccc2C(=O)N1c1ccccc1C` (stereo unspecified), -0.33; under `Cc1cc(C)nc(SCc2cc(=O)c(OC(=O)c3ccc(Cl)c([N+](=O)[O-])c3)co2)n1`, -1.05.
The molecule `Cc1cccc(NC(=O)C(C)OC(=O)c2ccccc2NS(=O)(=O)c2cc(C)c(C)c([N+](=O)[O-])c2)c1` (stereo unspecified) displayed a z-score of 0.656.
The value for `Cc1cc(NC(=O)CSc2ccc3nnc(-c4cccnc4)n3n2)no1` was -0.114; that for `COC(=O)CSc1ncnc2c1sc1nc(-c3ccco3)c3c(c12)CC(C)(C)OC3` was -1.09; that for `O=C(Oc1cc2oc(=O)c3c(c2cc1Cl)CCCC3)c1ccco1` was -0.428.
Under `COc1ccc(-c2nnc(SCc3cc(C)ccc3C)n2N)cc1` stands 0.0225; under `O=C(CSc1ncnc2c1oc1ccccc12)Nc1nc2ccccc2s1`, -0.00764.
The molecule `CCOc1ccc(NC(=O)CCN2CCN(S(=O)(=O)c3cc(Cl)ccc3OC)CC2)cc1` had a z-score of 0.00548.
The value for `Nc1nc(NCC2CCCO2)nc(NCC2CCCO2)c1[N+](=O)[O-]` (stereo unspecified) was 0.00341; that for `CCC(=O)N(Cc1ccc2c(c1)OCO2)Cc1cc2cc(OC)ccc2[nH]c1=O` was -0.638; that for `CCNC(=O)NC(=O)CSc1nc2ccccc2n1CCOC` was 0.0954.
The value for `C=CCn1c(SCC(=O)Nc2ccc(-c3nc4ccc(C)cc4s3)cc2)nnc1-c1ccncc1` was -0.459; that for `COC(=O)c1cc(NC2c3ccccc3C(=O)N2CCN2CCOCC2)cc(C(=O)OC)c1` (stereo unspecified) was -0.535.
The value for `C=CCn1c(COc2cccc3ccc(C)nc23)nnc1SCC(=O)O` was 0.0574; that for `CCC(Oc1ccccc1)C(=O)N1CCN(c2ccccn2)CC1` (stereo unspecified) was 0.0108.
For `O=C(NCc1cccnc1)c1ccc(NC(=O)c2ccco2)cc1`, the z-score worked out at 0.0702.
The value for `CC1Oc2ccccc2C=C1/C=N/NC(=O)c1ccccc1O` (stereo unspecified) was 0.0521; that for `CC(C)(C)c1ccc(/C=C/C(=O)Nc2ccncc2)cc1` was 0.0642.
Under `COc1cccc(CNC(=O)C2CCCN(S(=O)(=O)c3c(C)[nH]c(=O)[nH]c3=O)C2)c1` (stereo unspecified) stands 0.119; under `Cc1ccc(S(=O)(=O)/N=C2/NC(=O)/C(=C/c3ccc(Br)o3)S2)cc1`, 0.711; under `Cc1csc(NC(=O)Cc2nn(C)c(=O)c3ccccc23)n1`, 1.76.
As for `Cc1cc(C)c(C#N)c(N2CCCC2)n1`, the z-score was -0.89.
Under `Cc1ccn2cc(-c3cccc(NC(=O)c4ccccc4)c3)nc2c1` stands -0.542; under `O=C(c1ccccc1)N(C1=NCCCCS1)c1ccccc1`, 0.444.
On to `CC(=O)Nc1ccccc1C(=O)N1CCc2ccccc21`, for which the z-score was 1.03.
In turn, `O=S(=O)(NCc1ccco1)c1cccc(S(=O)(=O)N2CCOCC2)c1` returned a z-score of -0.532.
With `Cc1ccccc1N(Cc1ccccc1F)S(C)(=O)=O`, the z-score is -0.198.
The value for `C/C(=N\NC(=O)CC1(C)OCCO1)c1cccs1` was -0.101; that for `CC(C)C(=O)NCCc1c[nH]c2ccccc12` was 0.147.
The value for `Fc1ccc(-n2c(Cc3ccccc3)nnc2SCc2nc(-c3cccs3)no2)cc1` was -0.663; that for `Cc1cc(C)nc(-n2c(Nc3ccccc3)cc(=O)c3c(C)n(-c4ccccc4)c(=O)nc32)n1` was -0.0336.
Molecule `Cc1cc(C)cc(NC(=O)C2CCCN2/C=C/C(=O)C(F)(F)F)c1` (stereo unspecified) had a z-score of 0.0572.
Under `COc1ccc(/C=N/NC(=O)c2ccc(O)cc2)cc1CN1CCCc2ccccc21` stands -0.0751.
Under `CSC(=O)NC12CC3CC(CC(C)(C3)C1)C2` stands active: 8.08; under `Cc1cc(Cl)cc(Br)c1OCCNCC(C)O` (stereo unspecified), 0.644; under `O=C(/C=C/c1cccc(Cl)c1)N1CCC(Cc2ccccc2)CC1`, -0.321.
Under `CCOC(=O)c1ccc(N2C(=O)CC(N(Cc3ccc4c(c3)OCO4)C(=O)Nc3ccccc3)C2=O)cc1` (stereo unspecified) stands -0.102; under `COc1cccc(OC)c1C(=O)N1CCN(S(=O)(=O)c2ccc(C)cc2)CC1`, -0.127; under `NCC12CC3CC(CC(O)(C3)C1)C2`, 0.878.
Molecule `O=C(Cc1ccc(-n2c(=O)c3ccccc3n(Cc3cccc([N+](=O)[O-])c3)c2=O)cc1)NCC1CCCO1` (stereo unspecified) yielded a z-score of -0.374.
Under `CCN(CC)CCNC(=O)CS(=O)Cc1nc(-c2ccc(Cl)cc2)oc1C` (stereo unspecified) stands 2.41; under `O=C(NC(=S)Nc1ccc(N2CCOCC2)cc1)c1cccc([N+](=O)[O-])c1`, 0.169.
Under `CC(C)(C)C(=O)NC1(C(F)(F)F)N=C2SCCN2C1=O` (stereo unspecified) stands -0.137; under `CCOC(=O)Cc1c(C)nc2c(-c3ccccc3OC)c(C)nn2c1C`, -0.0115; under `Cc1ccc(NC(=O)c2cc(-c3ccc(C)o3)nc3ccccc23)nc1`, -0.637.
Under `COc1c(F)c(F)c(-c2csc(N)n2)c(F)c1F` stands 0.207; under `N#Cc1cc2c(=O)n3ccccc3nc2n(CCCn2ccnc2)c1=N`, -0.881; under `CCCn1c(SCC(=O)Nc2nc(C)cs2)nnc1-c1cccnc1`, 0.337.
`CCCCc1c(C)c2ccc(OCC(C)=O)cc2oc1=O` gave a z-score of 0.489.
The value for `O=C1CC(N2CCC(c3nc4ccccc4o3)CC2)C(=O)N1c1ccc(Cl)c(C(F)(F)F)c1` (stereo unspecified) was -0.416; that for `CC1(C)Cc2ccccc2C2CC(O)C(=O)N21` (stereo unspecified) was -0.731; that for `CCOC(=O)c1c(C)n(C)c2ccc(OC)c(NC(=O)CCN3CCSCC3)c12` was -0.773.
The value for `CCCC(=O)Nc1c(O)c2ccccc2[nH]c1=O` was 0.261.
As for `N#Cc1cccc(C(c2nnnn2C2CCCC2)N2CCCCCC2)c1` (stereo unspecified), the z-score was -0.823.
In turn, `COc1cccc(NC(=S)NCc2ccco2)c1` yielded a z-score of 0.531.
The value for `c1ccc(N2CCN(c3ccc4nncn4n3)CC2)nc1` was -0.348; that for `CCOC(=O)CSC1=C(C#N)C(=O)NC(c2ccc(OC)c(OC)c2)S1` (stereo unspecified) was active: 6.39.
Under `COc1cc(C2NC(=S)NC(c3ccccc3)=C2C(C)=O)cc(Cl)c1OCC(=O)O` (stereo unspecified) stands -0.175; under `O=C(O)C1C2C=CC(O2)C1C(=O)NCCC1=CCCCC1` (stereo unspecified), 0.536.
The value for `COc1cccc(N(CC(=O)NCCSc2ccccn2)S(C)(=O)=O)c1` was 0.257; that for `CCOC(=O)N1CCN(C(=O)c2ccc(CN(c3ccccc3)S(C)(=O)=O)cc2)CC1` was 0.0908.
In the case of `O=C(c1ccncc1)c1nccn1-c1ccccn1`, the z-score amounted to 0.347.
As to `COC(CCN(C)C)(c1ccccc1)c1ccccc1`, the z-score is -1.21.
Turning to `CCc1ccc(/C=N/NC(=O)C(=O)NCCCN2CCOCC2)cc1`, the z-score is -0.174.
For the molecule `O=C(COC(=O)CNS(=O)(=O)c1ccccc1)Nc1ccc(Cl)cn1`, the z-score was -0.294.
Under `OC(CN1c2ccccc2Sc2ccccc21)Cn1nnc2ccccc21` (stereo unspecified) stands -1.19.
The value for `COc1cc(S(=O)(=O)NC2CCCCC2)ccc1F` was -0.383.
Under `COc1cc(S(=O)(=O)Nc2c(C)cc(C)cc2C)ccc1Cl` stands 0.0266.
For the molecule `CC(C)(C)NC(=O)C(=O)NNC(=O)c1ccc(C(C)(C)C)cc1`, the z-score was active: 5.3.
As for `CCc1nnc(NC(=O)CN2C(=O)c3ccccc3S2(=O)=O)s1`, the z-score was -0.0336.
The value for `CCOC(=O)C1=C(CNCc2ccccc2Cl)NC(=O)NC1c1ccc2c(c1)OCO2` (stereo unspecified) was 0.278.
Under `N#Cc1c(-c2ccccc2)nc(N2CCOCC2)[nH]c1=O` stands -1.42; under `CC(C)N(Cc1nc(-c2ccc(Cl)cc2)no1)C(=O)C(c1ccccc1)c1ccccc1`, -0.258.
The value for `CC(=O)c1cc2c(cc1NC(=O)c1ccc(C)cc1)OCO2` was 0.935; that for `CCOC(=O)/C(C#N)=N/Nc1ccc(S(=O)(=O)N2CCc3ccccc32)cc1` was -0.374.
In the case of `CC(Sc1nnc(-c2cccnc2)n1-c1ccccc1)C(=O)NCc1ccc2c(c1)OCO2` (stereo unspecified), the z-score is -0.153.
